Laboratory results as given in the supplement of paper PMC3334620.
In all, about 33,000 sequences were measured (“E-score (-0.5 to 0.5)”: median about -0.021, highest 2% from about 0.32 on). This is one part of the list.

What follows are sequences tested against T1, Zap1 (UniProt P47043) (assay: PBM E-score (8-mer binding enrichment) (E-score (-0.5 to 0.5)); higher = stronger / more preferred TF binding; most listed sequences are background and not binding sites). Settings: protein concentration: 200 nM; construct: GST-full length.
T1 sequence: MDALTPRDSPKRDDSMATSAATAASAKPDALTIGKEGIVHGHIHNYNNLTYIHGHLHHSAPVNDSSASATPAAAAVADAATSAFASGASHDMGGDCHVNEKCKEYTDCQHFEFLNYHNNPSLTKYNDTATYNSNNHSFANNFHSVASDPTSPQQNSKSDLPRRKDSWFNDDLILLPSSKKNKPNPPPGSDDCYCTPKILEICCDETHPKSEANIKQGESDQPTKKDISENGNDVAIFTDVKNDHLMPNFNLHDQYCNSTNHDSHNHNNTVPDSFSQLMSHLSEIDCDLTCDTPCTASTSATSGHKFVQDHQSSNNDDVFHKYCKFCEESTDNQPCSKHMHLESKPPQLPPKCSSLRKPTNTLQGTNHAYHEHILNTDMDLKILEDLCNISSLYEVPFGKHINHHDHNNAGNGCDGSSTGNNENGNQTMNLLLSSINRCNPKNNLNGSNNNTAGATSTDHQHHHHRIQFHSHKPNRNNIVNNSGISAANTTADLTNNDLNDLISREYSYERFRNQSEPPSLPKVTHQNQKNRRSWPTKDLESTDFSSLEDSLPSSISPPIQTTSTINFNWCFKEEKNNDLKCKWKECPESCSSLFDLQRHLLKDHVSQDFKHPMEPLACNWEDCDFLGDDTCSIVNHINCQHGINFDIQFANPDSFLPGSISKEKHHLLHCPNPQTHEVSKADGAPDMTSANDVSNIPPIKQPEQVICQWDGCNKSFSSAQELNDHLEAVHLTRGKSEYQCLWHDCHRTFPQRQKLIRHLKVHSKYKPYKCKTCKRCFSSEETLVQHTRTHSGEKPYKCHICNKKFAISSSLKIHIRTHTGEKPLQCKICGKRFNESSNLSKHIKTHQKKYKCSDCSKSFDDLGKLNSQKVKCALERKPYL
How it was run: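 For each ungapped eight-base word taken together with its reverse complement, the Universal PBM Analysis Suite assigned an E-score. Binding data came from GST-tagged yeast transcription factors, applied at about 100-200 nM, on universal all-10-mer Agilent arrays made double-stranded by primer extension. Fluorescent anti-GST marked bound protein, and scans were normalised with masliner.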

Sequence | PBM E-score
CGTTAGAA | -0.0128
ACTTCCTA | 0.0764
ACACTAAA | 0.211
AGCGCGTC | -0.199
GCAGCACC | -0.0828
CCATGTCC | -0.0808
CTGGGTCC | -0.0119
AATGTCGT | -0.0154
CGAACGTA | 0.0414
GGCCGCAA | -0.0567
ACGGACCC | 0.0387
AGAGACAC | -0.242
ACGTAAAT | -0.0357
AGAAAACT | 0.123
GCGAACCC | 0.00303
AGCCCGGA | -0.0971
CATATTGA | -0.0609
CAAACGCA | -0.174
CATTGGAG | -0.0511
CATCTAAC | -0.119
CGGTGCTA | -0.00968
AATGACTC | -0.18
CAATGGCC | -0.177
CAGTGGGC | -0.131
GACATCAC | -0.0987

Sequence | PBM E-score
CCCCTGCA | -0.104
GTAACTAA | 0.241
CGGGTGCA | 0.0579
CTAGGCAA | -0.104
ATACATTC | -0.0563
ACAAGAGA | -0.043
GACTTGCC | -0.269
AATGACAG | -0.0283
CTCTGTCC | -0.0177
CATCACGA | -0.0653
ACATGAGT | -0.154
GATTTTAC | 0.00547
ACTTGAGC | -0.0825
AATTCCTC | -0.0854
CCTATATC | 0.0413
GTCGTGGA | -0.0109
ACCAGGAG | 0.119
AAGTAGAA | 0.00198
ACAAGACC | 0.064
CTCGAAGC | -0.204
CGAAATAG | 0.079
AGAGGTAC | 0.298
CTCATAAG | 0.0146
TCTGCGCA | -0.203
GGAACGAC | -0.247

Sequence | PBM E-score
GACGAAGC | -0.194
CGTCCGAC | -0.258
CATCCCCC | -0.226
ATATAGTA | 0.121
GCCGCGAA | -0.0427
CTAATAGA | 0.108
CGACCAGA | 0.147
GATCTTGC | -0.156
ATCAGTTG | 0.103
CTTCCATC | -0.189
TCGGCAAA | -0.0536
GAGCGATC | -0.113
ATCGCACG | -0.191
GACATAGC | -0.174
AAGCGCGA | 0.0311
ATCGGGGC | -0.185
ACCAAGGA | 0.0897
AATAGACT | -0.0494
ACTCTCCC | -0.291
CAGTACTA | 0.164
CCGTGTAC | 0.0294
AGACGGGG | -0.267
TAATTATA | 0.244
CTGAATAA | 0.062
GGCGAAGA | -0.185

Sequence | PBM E-score
CGCACTAC | -0.149
CCAGCTTC | -0.0539
CCCCTACG | -0.117
CACGGTAG | 0.121
ACCACTTG | 0.0803
CAAGGATA | 0.111
GTCGTTAA | -0.0519
CACTAGTG | 0.0966
CATTATGA | 0.00683
CCCAAAAC | 0.304
AGCCCCTC | 0.0435
GACGGATA | 0.067
ATCGCTTA | -0.0917
CGGGGGAG | -0.341
TGCACTAA | 0.096
AGCACATC | -0.152
AGATTCGG | 0.0257
GAGTATGA | -0.112
ACTATTGA | 0.138
TCCGATAA | -0.064
AGTGGATA | -0.0371
CTGGCTAC | -0.0602
CGGGCTGC | -0.0991
GATTTATA | 0.134
AACCCTGC | 0.385

Sequence | PBM E-score
ATGTGTCA | -0.118
ACAATCCT | 0.0854
CACATATG | -0.121
CGTAGCTA | -0.145
AATAATCC | 0.213
ACCCGCCC | 0.238
AACTCTGG | 0.0995
GTACCTAA | 0.211
ATTGCTGG | -0.0125
CTATGGAC | -0.0486
TATCCACA | 0.0984
ACGTCTTG | -0.119
AGTTTCCA | 0.123
AACATACA | 0.129
ACCGTGCG | 0.165
CGGCTTAA | 0.247
GTTCCTCA | 0.128
AGCAATAG | -0.198
GTAGGCAA | -0.176
AGAGGCTA | -0.106
ACGTCGTG | -0.127
CCCCACAG | 0.00441
GATCTACC | 0.11
CTTAGAAG | -0.0562
AACGACTT | -0.183

Sequence | PBM E-score
AGCATCGC | -0.254
AGCGTATG | -0.236
GACTCCTA | -0.0525
CCCGGGTA | 0.278
AAACGTTG | -0.122
CATTCTAC | -0.0209
CAATACTA | -0.0617
CAGTCATG | -0.164
CTAAAGGA | 0.212
GGGTAGGA | 0.095
CCGAACGG | 0.0451
CTCCACAA | 0.107
GCCCAAAA | 0.179
ATTTTTTG | 0.0652
AGTGGCAA | -0.0405
AACCCTCC | 0.185
ATAAGTCG | -0.254
AACGTTGG | -0.0938
AGGAGACT | -0.428
CACGCTCA | 0.0304
CGTGCGCC | -0.216
ATGTGCGA | -0.141
GCGGATAC | -0.00046
ATGGCGGA | -0.168
CACCAAGA | 0.0172

Sequence | PBM E-score
ATTGGTCC | 0.00808
AGGACCGC | -0.0185
GAAATTTC | -0.0789
GAGTACTA | 0.101
AGCTATAG | -0.173
CGACTACA | -0.24
GGGGGTAC | 0.186
AGCAAAGA | -0.0273
CAGCTCGC | -0.123
AGTTGAAT | 0.0291
AAAGAGCT | -0.135
TCCACCAA | -0.00074
AATTTCTC | 0.0707
CTGAAAGC | 0.0574
ATGGACTG | -0.263
GCAAGCGA | -0.134
CGACAACC | 0.339
AAGGGATA | 0.118
AACCAAGA | 0.247
CCCTGTCC | 0.0191
AATGAAGC | -0.0777
GACTTGAC | -0.0855
CCGTCTTA | -0.0588
ATGTAATC | 0.0131
GCGGCAAA | -0.219

Sequence | PBM E-score
AATCCCCC | -0.341
CGAATGTA | -0.156
AATCGCTG | -0.118
CAGCAAGA | -0.00185
CTGCAAAC | -0.0481
CGCCATTA | 0.0223
CAATATTA | 0.0896
CTCCTAAA | -0.147
TAGGAAAA | 0.045
ACCGCTTA | 0.12
AAGCTCGG | -0.227
AGAGCTGA | -0.168
AGAGATTG | -0.0514
ATTGTTCC | 0.0129
GCGCAGCC | -0.387
AGTCGGCA | -0.147
AGGCGGAG | -0.0819
TACACAGA | 0.0113
CCTTACAC | 0.0322
TACCGAAA | 0.116
AACAAGCG | -0.0254
ATGCTTAG | 0.0971
AAGAAGCT | -0.0591
GCGTTGCC | -0.22
CTTAGCGA | 0.0604

Sequence | PBM E-score
ACTTACAC | -0.119
GACCATTA | 0.256
AGCGCCTG | -0.203
AATGAGTC | -0.0805
CAATGTCG | -0.0226
GGACGCCA | -0.0304
GCCGACCA | -0.0589
CATAGGGG | 0.206
AGGTAAGG | 0.0588
ATCCTAAC | 0.118
CGAGCCGC | -0.157
ACAAATGA | 0.0556
AGACTACT | -0.0915
CAAACTCC | 0.033
GATAGGCA | -0.161
AGAGACAA | -0.163
TGAGCTAA | -0.0146
AACATGGT | 0.134
GGAGCTAA | -0.165
